Laboratory results from the supplement of paper PMC10326071.
± gives the standard deviation of the averaged measurements. The list shows a part of the results. Many values rest on one well or one pass, so single values are uncertain.

Tests used:
[1] = tested on: SARS-CoV-2 nsp3 SARS-unique domain core (SUD-core, nsp3 residues 413-676); assay: dissociation rate constant koff (BLI); higher = faster dissociation; settings: 100 µM; 25 °C
[2] = tested on: SARS-CoV-2 nsp3 SARS-unique domain core (SUD-core, nsp3 residues 413-676); assay: apparent dissociation constant Kd (single-concentration BLI fit); higher = weaker binding; settings: 100 µM; 25 °C

Structure (SMILES)	dissociation rate constant koff [1] [s⁻¹]	apparent dissociation constant Kd [2] [µM]
O=c1[nH]cnc2[nH]ncc12	0.0153	1030
CN1CCN(c2cnc3c(C4CCN(C(=O)c5ccc(OC(F)(F)F)cc5N)CC4)ncnc3c2)CC1	0.0498	11300
NCC(=O)NS(=O)(=O)OC[C@H]1O[C@@H](n2cnc3c(N)ncnc32)[C@H](O)[C@@H]1O	0.0107	38.2
CCn1nnc2c(N3CCOCC3)nc(-c3ccc(NC(=O)Nc4ccc(C(=O)N5CCN(C)CC5)cc4)cc3)nc21	0.422	272
C[C@H](Nc1ncnc2nc[nH]c12)c1cc2cccc(Cl)c2c(=O)n1-c1ccccc1	1.26	2110
C[C@H]1O[C@@H](n2cnc3c(N)ncnc32)[C@H](O)[C@@H]1O	0.298 ± 0.34	2100 ± 1700
Nc1nc(Nc2ccc(S(N)(=O)=O)cc2)nn1C(=O)c1c(F)cccc1F	0.817	3820
Cc1[nH]nc2ccc(-c3cncc(OC[C@@H](N)Cc4ccccc4)c3)cc12	0.386	617
COCCNCCc1cccc(Nc2ncc3c(n2)-c2ccccc2[C@H](c2ccccc2F)C3)c1	0.00641	83.8
Cc1nc(Nc2ncc(C(=O)Nc3c(C)cccc3Cl)s2)cc(N2CCN(C(=O)COCCOCCOCCNC(=O)[C@H](CC(C)C)NC(=O)[C@@H](O)[C@H](N)Cc3ccccc3)CC2)n1	0.0647	3730
Cn1cc(-c2cnn3c(N)c(Br)c([C@@H]4CCCNC4)nc23)cn1	0.107	83.5
CC(C)(/C=C(\C#N)C(=O)N1CCC[C@@H](n2nc(-c3ccc(Oc4ccccc4)cc3F)c3c(N)ncnc32)C1)N1CCN(C2COC2)CC1	0.903	2310
Nc1nc2c(ncn2[C@@H]2O[C@H](CO)[C@@H](O)[C@H]2F)c(=O)[nH]1	0.0452	12900
COc1cccc(OC)c1C(=O)OCc1cc(O)ccc1O[C@@H]1O[C@H](CO)[C@@H](O)[C@H](O)[C@H]1O	1.51	991
O=c1[nH]c(=O)n([C@@H]2O[C@H](CO)[C@@H](O)[C@H]2O)cc1F	0.00924	45
CCNC(=O)C#Cc1ccc2c(C(=Nc3ccc(CN(C)C)cc3)c3ccccc3)c(O)[nH]c2c1	0.464	2590
Nc1ncc(-c2ccc(C(=O)N3CCNCC3)cc2)nc1-c1ccc(C(F)(F)F)cc1	0.461	1830
O=C(NC1CCOCC1)c1ccc(-c2cc(-c3cn[nH]c3-c3ccccn3)ccn2)cc1	0.00436	6.98
CC1(O)CC(c2nc(-c3ccc4ccc(-c5ccccc5)nc4c3)c3c(N)nccn23)C1 (stereo not drawn)	0.426	3370
CNc1nc(Nc2cnn([C@H]3CCN(C4COC4)C[C@@H]3F)c2Cl)ncc1C(F)(F)F	0.21	11.7
Cc1c(-c2ccc(C(N)=O)c3[nH]c4cc(C(C)(C)O)ccc4c23)cccc1-n1cnc2ccccc2c1=O	0.111	4000
CC(C)=CCC[C@](C)(O[C@@H]1O[C@H](CO[C@@H]2O[C@H](CO)[C@@H](O)[C@H](O)[C@H]2O)[C@@H](O)[C@H](O)[C@H]1O)[C@H]1CC[C@]2(C)[C@@H]1[C@H](O)C[C@@H]1[C@@]3(C)CC[C@H](O[C@@H]4O[C@H](CO)[C@@H](O)[C@H](O)[C@H]4O[C@@H]4O[C@H](CO)[C@@H](O)[C@H](O)[C@H]4O)C(C)(C)[C@@H]3CC[C@]12C	0.254	3250

Structure (SMILES)	dissociation rate constant koff [1] [s⁻¹]	apparent dissociation constant Kd [2] [µM]
O=c1[nH]c(=O)c2ncn([C@@H]3O[C@H](CO)[C@@H](O)[C@H]3O)c2[nH]1	0.0131	151
COc1cc(OC)c(CCC(=O)c2ccc(O)cc2)c(OC)c1	0.66	7470
C[C@@H]1CN(CC(=O)Nc2ccc3c(c2)Cc2cccc(-c4cc(=O)cc(N5CCOCC5)o4)c2S3)C[C@H](C)O1	0.477	29600
Oc1cccc(Nc2ncc(F)c(Nc3cccc(O)c3)n2)c1	1.2	904
CC(C)(C)S(=O)(=O)c1cc2c(Nc3ccc4scnc4c3)ccnc2cc1OCCOCCOCCOCCOCC(=O)Nc1cccc2c1CN(C1CCC(=O)NC1=O)C2=O (stereo not drawn)	0.336	6360
COCCNCc1ccc(-c2cc3nccc(Oc4ccc(NC(=S)NC(=O)Cc5ccc(F)cc5)cc4F)c3s2)nc1	0.0362	141
Cc1cc(Nc2ncnc3ccc(NC4=NC(C)(C)CO4)cc23)ccc1Oc1ccn2ncnc2c1	0.107	2670
C=CS(=O)(=O)c1ccc(Nc2nc(OCC3CCCCC3)c3[nH]cnc3n2)cc1	1.66	799
CN1CC[C@H](c2c(O)cc(O)c3c(=O)cc(-c4ccccc4Cl)oc23)[C@H](O)C1	0.0895	174
Cn1c(=O)ccn([C@@H]2O[C@H](CO)[C@@H](O)[C@H]2O)c1=O	1.93	1910
COc1cc2c(cc1OC)-c1[nH]nc(Nc3cccc(F)c3)c1C2	0.226	178
COc1c(C)c(C(=O)c2ccc(N)c(C(=O)O)c2)n2ccccc12	0.0998	1350
O=c1cc(-c2ccc(O)cc2)oc2cc(O)c([C@@H]3O[C@H](CO)[C@@H](O)[C@H](O)[C@H]3O)c(O)c12	0.0598	662
C#Cc1c[nH]c(=O)[nH]c1=O	0.00985	44.7
CC(C)(C)c1cnc(CSc2cnc(NC(=O)C3CCNCC3)s2)o1	13.1	138
O=C(O)c1ccc2c(c1)nc(Nc1cccc(Cl)c1)c1ccncc12	0.62	1470
CN(C)c1nc2c(ncn2[C@@H]2O[C@H](CO)[C@@H](O)[C@H]2O)c(=O)[nH]1	0.272	3900
CCCCC[C@H](O)CC(=O)CCc1ccc(O)c(OC)c1	0.0151	5.52
Nc1n[nH]c2cc(-c3ccc(=O)n(Cc4cccc(Cl)c4)c3)ccc12	0.079	163
COc1cc2ncnc(Nc3ccc(F)c(Cl)c3)c2cc1NC(=O)/C=C/CN1CCCCC1	0.265	3830
Cc1cn([C@@H]2C[C@@H](O)[C@H](CO)O2)c(=O)[nH]c1=O	0.00987	95.4
COc1cccc2cc(-c3nc(C4CCC(C(=O)O)CC4)n4ncnc(N)c34)[nH]c12 (stereo not drawn)	0.236	25.8
